# According to PubChem BioAssay AID2094 (Broad Institute, 2009):
# Screen size: about 300,000 compounds; about 1,200 (0.4%) were called active. The inconclusive results got no clear call from the source; some entries with a clear call stand among them for comparison. Rule as the data show it: active = activity change below about -75% (passing the limit was not always enough); inconclusive = no clear call, values can overlap the other calls.
# Test: Vibrio harveyi AI-2 quorum sensing modulators, primary screen, JMH597 strain, luminescence/OD600 ratio (AID 2094);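 also: luminescence divided by OD600 gain over 9 h not by final OD600 alone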
# Settings: Vibrio harveyi JMH597 AI-2 luminescence/OD600 ratio, 9 h; at 7.5 µM; hits give low values; 0 = neutral-control median; strain lacks LuxN and CqsS sensors
row,SMILES,activity change
1,COCc1cc(=O)[nH]c(/N=C(\N)Nc2cccc(Cl)c2)n1,inactive: 15.9%
2,O=C(COC(=O)c1ccc(Br)o1)Nc1nc2ccccc2s1,inconclusive: -72%
3,O=C(CCCn1nnc(-c2cccnc2)n1)c1ccc(F)cc1,active: -80.2%
4,O=C(N/N=C\c1c(O)ccc2ccccc12)c1cncc(Br)c1,inconclusive: -95.4%
5,CCOC(=O)c1sc(NC(=O)C(CC)OC(=O)c2ccco2)nc1C (centres undefined),inconclusive: -76.8%
6,C=CCNc1nc(-c2ccccn2)nnc1-c1ccccc1,inactive: 3.51%
7,O=c1c2cc(O)c(O)cc2oc2cc(O)c(C3OC(CO)C(O)C(O)C3O)c(O)c12 (centres undefined),inactive: 13.6%
8,CCC(NC(=O)Nc1nnc(C(F)(F)F)s1)(C(F)(F)F)C(F)(F)F,inconclusive: -32.4%
9,CC(C)CNC(=S)NC(=O)c1csc([N+](=O)[O-])c1,inconclusive: -41.6%
10,Clc1cccc(Cl)c1C1=NOC(c2nnc(-c3ccccc3)o2)C1 (centres undefined),inactive: 14.4%
11,Cc1c(-c2ccncc2)oc2ccc(Br)cc2c1=O,inactive: 8.8%
12,CSc1cccc(NC(=O)/C=C/c2ccccc2)c1,inconclusive: -55.7%
13,O=C(NC(Cc1ccccc1)C(=O)N1CCCCC1)c1ccccc1 (centres undefined),inactive: 13.4%
14,O=[N+]([O-])c1ccccc1C1Nc2cccc3cccc(c23)N1,inactive: 23.5%
15,COc1ccc(OCC(=O)Nc2ccc(S(=O)(=O)N3CCCC3)cc2)cc1,inconclusive: -72.6%
16,COc1ccc(NC(=O)C(CC(=O)O)Cc2ccc(Br)cc2)cc1 (centres undefined),inconclusive: -171%
17,C=CCn1c(Sc2ncc([N+](=O)[O-])s2)n[nH]c1=O,inconclusive: -34.6%
18,COc1ccc([N+](=O)[O-])c(S(=O)(=O)c2ccccc2)n1,inconclusive: -95.9%
19,COc1ccc(CC(=O)NC2CCCc3ccccc32)cc1 (centres undefined),inactive: 9.93%
20,Cc1ccccc1NS(=O)(=O)c1ccc(C(=O)NCC(C)(C)N2CCOCC2)cc1,inactive: 11.4%
21,S=c1[nH]c2ccccc2n2cccc12,inactive: 10.1%
22,CCc1cn([C@H]2C[C@H](O)[C@@H](CO)O2)c(=O)[nH]c1=O,inconclusive: -40.6%
23,COc1ccc(-c2nn(-c3ccccc3)cc2/C=N/NS(=O)(=O)c2ccccc2)cc1,inactive: 17.6%
24,O=C(OCC(=O)c1c[nH]c2ccccc12)c1ccc(Br)o1,inconclusive: -75.4%

row,SMILES,activity change
1,O=C(NCCC1=CCCCC1)C1CCCN(S(=O)(=O)c2cccc3cccnc23)C1 (centres undefined),inconclusive: -89.7%
2,O=C(N/N=C/c1cc(Cl)c(O)c(Cl)c1)c1cc2c(ccc3ccccc32)o1,inconclusive: -17.6%
3,COc1ccc(C(=O)NCCc2ccccc2F)cc1OC1CCN(C(C)=O)CC1,inconclusive: -107%
4,Cc1cccc(Oc2coc3cc(O)ccc3c2=O)c1,active: -87.1%
5,O=C(COc1nncc2ccccc12)Nc1ccc(F)c(F)c1,active: -96.4%
6,O=C(COC(=O)c1ccc(Cl)s1)c1cc2ccccc2o1,active: -95.4%
7,O=C(NCc1ccc(Cl)cc1)c1cc2ccccn2n1,active: -84%
8,COc1cccc(F)c1C(C[N+](=O)[O-])c1c(N)n(C)c(=O)n(C)c1=O (centres undefined),inconclusive: -72.2%
9,COc1ccc(OCC(=O)Nc2cc3c(cc2C(=O)O)OCCCO3)cc1,inactive: 6.47%
10,Cc1cc(OCC(=O)Nc2ccc(N3CCCC3)cc2)cc(C)c1Cl,inconclusive: -539%
11,Clc1cccc(C2=NOC(c3nnc(-c4ccccc4)o3)C2)c1 (centres undefined),inconclusive: -64%
12,Cc1ccc(C2=NCN(c3ccc(C(=O)O)cc3)C(=S)N2)cc1,inactive: 29.5%
13,COc1cccc(C(=O)Nc2cccc(-c3nc4ncccc4o3)c2C)c1,inconclusive: -118%
14,COc1ccc(NC(=O)Cn2cnc3ccccc3c2=O)cc1OC,active: -76.3%
15,Cc1nn(CC(=O)Nc2ccc(S(=O)(=O)N(C)C)cc2)c(C)c1[N+](=O)[O-],inconclusive: -70.2%
16,O=c1[nH][nH]c(-c2ccccc2O)c1C(C[N+](=O)[O-])c1ccccc1 (centres undefined),inconclusive: -34.3%
17,O=C(Cn1cnc([N+](=O)[O-])n1)N/N=C/c1ccccc1O,inconclusive: -62.8%
18,Cc1cc(C2(c3cc(C)c(NC(=O)CN4CCOCC4)c(C)c3)CCCCC2)cc(C)c1NC(=O)CN1CCOCC1,inconclusive: -159%
19,COc1ccc(CNc2ncnc3cc(Cl)ccc23)cc1,inconclusive: -76.4%
20,Nc1ccc(S(=O)(=O)Nc2ccnn2-c2ccccc2)cc1,inconclusive: -75%
21,COc1ccc(C(=O)NC(=S)NNC(=O)c2ccc(C)cc2)cc1,inconclusive: -28.6%
22,Oc1c(CN2CCN(c3ccccn3)CC2)cc(Cl)c2cccnc12,inconclusive: -68.4%
23,COc1ccc(S(=O)(=O)N2CCC(C(=O)NCCN3CCOCC3)CC2)cc1,inactive: 5.29%
24,CC(C)CC(=O)/C=C/n1c(=S)oc2ccccc21,active: -86.2%

row,SMILES,activity change
1,O=[N+]([O-])c1cccc(CSc2ncnc3ccccc23)c1,inactive: 19.5%
2,COc1ccc(CNC(=O)Nc2cc(C)cc(C)c2)cc1,inconclusive: -82.3%
3,CN1N=C(c2ccc(Cl)cc2)CC(c2ccc(Cl)cc2)C1=O (centres undefined),inconclusive: -68.1%
4,Fc1ccc(OCc2cc(-c3ccccc3)no2)cc1,active: -95%
5,O=C(O)c1cccnc1Sc1ccc(Cl)cc1,inconclusive: -66%
6,CCOc1ccccc1C(=O)OCC(=O)Nc1ncc(C(F)(F)F)cc1Cl,inconclusive: -81.9%
7,Cc1cccc(NC(=O)CN2C(=O)NC(Cc3ccccc3)C2=O)c1 (centres undefined),inconclusive: -77.7%
8,CCc1ccc2[nH]c(=O)c(C(c3nnnn3Cc3ccc(OC)cc3)N3CCOCC3)cc2c1 (centres undefined),inactive: 10.8%
9,COc1cccc(NC(=O)COc2ncnc3sc(C)c(C)c23)c1,active: -76.4%
10,CCc1ccc(Nc2nnc(SC3CCOC3=O)s2)cc1 (centres undefined),inconclusive: -76.7%
11,O=C(Nc1ccc(S(=O)(=O)N2CCCC2)cc1)C1CCCCC1,active: -82.8%
12,COc1ccc(CCNS(=O)(=O)c2ccc(Br)s2)cc1,active: -77.9%
13,O=C(O)c1ccccc1C1Nc2ccccc2C(=O)N1CCCN1CCOCC1 (centres undefined),inactive: 22%
14,CC(CCc1ccccc1)N(C)CC(O)c1cccc([N+](=O)[O-])c1 (centres undefined),inactive: 21.5%
15,O=C(Nc1ccc2ccccc2c1)c1ccccc1F,inactive: 14.7%
16,CCOC(=O)C1CCCN(S(=O)(=O)c2cccs2)C1 (centres undefined),inconclusive: -81.6%
17,Oc1ccc2ccccc2c1N=Nc1nccs1,inconclusive: -49.2%
18,c1ccc(OCCSc2nc3ccccc3o2)cc1,active: -80.4%
19,CCOC(=O)c1ccc(NC(=O)Cn2nnc3ccccc32)cc1,inconclusive: -64.1%
20,O=S(=O)(NCCCc1ccccc1)c1ccccc1,inconclusive: -74.7%
21,CCOC(=O)N1CCN(C(=O)COC(=O)COc2c(C)cc(C)cc2C)CC1,inconclusive: -76.5%
22,S=c1[nH]nc(COc2ccc3c(c2)OCO3)n1-c1ccccc1,inconclusive: -150%
23,Cn1cccc1C(=O)OCC(=O)c1cc2ccccc2o1,inconclusive: -78.3%
24,COc1ccccc1OCC(=O)Nc1ccc(S(=O)(=O)N2CCCC2)cc1,inconclusive: -79.8%

row,SMILES,activity change
1,COC(=O)c1ccc(CNC(=O)Cn2nnnc2CN(C)C(C)C)cc1,inactive: 7.84%
2,O=C(CCNC(=O)c1ccc(Br)cc1)Nc1ccccc1N1CCOCC1,inactive: 11.2%
3,N/C(=N\OC(=O)c1ccc(Cl)cc1Cl)c1cccnc1,inactive: 16.8%
4,CCN1CCN(C(=O)c2cc3cc(Cl)ccc3[nH]2)CC1,active: -76.8%
5,O=C(O)c1ccc(N2CCS(=O)(=O)CC2)cc1,inactive: 51%
6,O=[N+]([O-])c1ccc(NCCCNS(=O)(=O)c2ccccc2)cc1,inconclusive: -48.5%
7,CN(C)S(=O)(=O)c1ccc(NC(=O)C2CC3C=CC2C3)cc1 (centres undefined),inconclusive: -72.9%
8,COc1ccc(N(C(=O)c2ccc(Cl)cc2)C2=CC3CCC(C2)N3C)cc1 (centres undefined),inconclusive: -117%
9,Cc1ncn(-c2ccc(C(=O)Oc3ccccc3)cn2)n1,active: -86.6%
10,CCCC(c1nnnn1CC1CCCO1)N1CCN(c2nc3ccccc3s2)CC1 (centres undefined),inactive: 7.5%
11,O=C(NNC(=S)NC(=O)c1ccc(Br)cc1)c1ccc([N+](=O)[O-])cc1,inconclusive: -82.6%
12,Nn1c(SCc2cccc(Br)c2)nnc1-c1cccnc1,inconclusive: -57.8%
13,CC(C)(C)c1ccc(/C=C/C(=O)N2CCc3ccccc3C2)cc1,inconclusive: -66.7%
14,COc1ccc(C2CC(c3ccccc3)=NN2C(=O)c2ccc(F)cc2)cc1 (centres undefined),inactive: 32.4%
15,CCNc1cc(Cl)nc(SC)n1,inactive: 9.06%
16,Cc1ccc(-n2c(SCC(=O)NNC(=S)Nc3ccccc3)nc3ccccc3c2=O)cc1,inactive: 17.4%
17,Cc1ccc(C(=O)CCC(=O)Nc2ccccc2F)cc1,inconclusive: -78.5%
18,O=S(=O)(N/N=C\C=C\c1ccccc1)c1ccccc1,inconclusive: -58.7%
19,CCOC(=O)C1=C(c2ccccc2)NC(=O)NC1c1ccc(OC)cc1 (centres undefined),inactive: -23.2%
20,COc1cccc(CN2CCC(n3nccc3NC(=O)CCCc3ccccc3)CC2)c1,active: -81.1%
21,O=C(c1ccc([N+](=O)[O-])o1)N1CCc2ccccc21,inconclusive: -74%
22,Cc1cccc(C)c1OCC(=O)N(Cc1ccc(Cl)cc1)C1CCS(=O)(=O)C1 (centres undefined),inconclusive: -131%
